Among the data in PubChem BioAssay (NCI) are TGI and GI50 values, retold here.

This assay has as its system NCI-H322M lung. The experiment in a line: NCI tumour cell line growth inhibition, 48 h.

Where “and” joins values, the source holds several entries; their conditions need not be identical. Equal entries are not always repeated.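 These data come from cells grown in 96-well plates and exposed to compound for 48 hours at five concentrations. At the GI50, growth is halved. TGI marks complete inhibition of growth.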 Peptide text beside a SMILES is read from it. * marks the point of attachment. Boc = CC(C)(C)OC(=O)*; Bn = c1ccc(C*)cc1 Bounds are passed on as bounds.

For `COC(=O)c1c(O)ccc2c1c1c(n2Cc2cc(OC)cc(OC)c2)C(=O)c2ccccc2C1`, the TGI was over 100 µM.

For the molecule `CN=C(n1ccnc1)n1ccnc1`, the TGI was over 100 µM.

Take `CN1CCc2c([nH]c3ccccc23)C1`: the TGI is over 100 µM.

The molecule `CC1(C)S[C@@H]2[C@H](NC(=O)C3(N)CCCCC3)C(=O)N2[C@H]1C(=O)O` showed a TGI of over 100 µM. Still for that read-out and setting: the value for `CN1C(=O)c2ccccc2OC12C=Cc1c(ccc3ccccc13)O2` (stereo unspecified) was over 76.6 µM. On the same count and under the same terms, for `CC(C)(C)NNC(=O)CCn1[nH]c(=O)c(Cl)c(Cl)c1=O` the value was over 100 µM. For the molecule `CCN(CC)CCC(CNc1ccnc2cc(Cl)ccc12)c1ccc(Cl)cc1` (stereo unspecified), the GI50 was 2 µM and the TGI came out at 5.87 µM. `C=CCCON(C(=O)OC(C)(C)C)C(C)(C)C` had a TGI of over 100 µM. Take `COc1cccc2c1C(=O)c1c(O)c3c(c(O)c1C2=O)C[C@@](O)(C(=O)CO)C[C@@H]3OC1CC(N)CC(C)O1` (stereo partly specified): the GI50 is 0.131 µM; the TGI was 0.824 µM and 1.02 µM.

Consider `Oc1ccc(Nc2ncnc3c2sc2ncccc23)cc1`, for which the GI50 is 0.811 µM and the TGI was over 100 µM. Molecule `BrC1=C(Br)C2(SCCS2)[C@H]2C[C@@H]1c1ccccc12` yielded a TGI of over 100 µM.

`Cc1n(Cc2ccccc2)c2c([n+]1C)C(=O)c1ccccc1C2=O` registered a TGI of 1.45 µM. On the same count and under the same terms, for `N#C[C@H](c1ccccn1)c1nc2ccccc2nc1Cl` the value was over 100 µM; for `CC(=O)N(C(C)=O)c1ncc(-n2nc(-c3ccccc3)cc2-c2ccccc2)c(-c2ccccc2)n1`, over 10 µM; for `O=C1/C(=C/c2ccc(Br)s2)NC(=S)N1c1ccccc1`, over 100 µM. As for `COc1ccccc1/C=N\N/C(N)=N\N=C\c1ccccc1OC`, the GI50 is 0.542 µM and the TGI was found to be 8.08 µM. `CN(C)c1ccc(/C=c2/c3ccccc3n3c2c2c([n+]3C)CCCC2)cc1` gave a TGI of 1.92 µM. Same read-out and setting: for `Cc1c2n(c(=O)[nH]c1=O)C1OC(CO)C(O2)C1O` (stereo unspecified) the value was over 100 µM.

For the molecule `CC(=O)Nc1ccc(S(=O)(=O)N2C(=O)CCC2C(=O)Nc2ccc(Br)cc2)cc1` (stereo unspecified), the GI50 is 4.96 µM and the TGI was 23.9 µM. Take `C[N+](C)(C)CC1CCCc2ccccc2C1=O` (stereo unspecified): the TGI was 32.4 µM. On to `Cn1cc(C2=C(c3ccc(N)cc3)C(=O)NC2=O)c2ccccc21`, for which the GI50 was over 21.8 µM and the TGI is over 25 µM. As to `O=S(=O)(O)CCCc1cccc2ccccc12`, the TGI is over 100 µM.

Molecule `CCn1c(-c2ccccc2)cs/c1=N\C(P(=O)(O)O)P(=O)(O)O` registered a TGI of over 100 µM. The same measure, in the same setting: the value for `O=C(O)C(O)C(O)C(O)C(O)c1nc2ccccc2s1` (stereo unspecified) was 75.5 µM; that for `CC1=C(C)CC2C(=O)N(c3cc(C(C)(C)C)ccc3C(C)(C)C)C(=O)C2C1` (stereo unspecified) was over 100 µM. Take `NC(=S)N/N=C/C(=O)O`: the GI50 is over 100 µM and the TGI is over 100 µM. For the molecule `CO/N=C(\C(=O)OC(=NC1CCCCC1)NC1CCCCC1)c1csc(NC(c2ccccc2)(c2ccccc2)c2ccccc2)n1`, the TGI was over 10 µM. With `CC(C)CCC1CC2C(=O)N(c3ccccc3)C(=O)C2c2[nH]c3ccccc3c21` (stereo unspecified), the TGI was 22.1 µM. Take `COc1ccc(OC)c2c1[nH]c(=O)c1c3ccccc3cn21`: the GI50 was 1.46 µM and the TGI came out at 3.52 µM. Take `O=C1COc2cccnc2N1CCCCO`: the TGI was over 100 µM. Regarding `NC(CCCCCP(=O)(c1ccccc1)C1C=CC=CC1)C(=O)O` (stereo unspecified), the TGI is over 100 µM.

`CSc1nc(=O)n(CCC#N)nc1SC` had a TGI of over 100 µM. On the same count and under the same terms, for `Cc1ccc2c(c1)C(=S)N1CSCC1c1nncn1-2` (stereo unspecified) the value was over 100 µM. `CC(=O)OC1COC(Oc2c(C)c3c4c(c2O)[C@@H](C)CC[C@@H]4[C@@H](C)C[C@H]3C=C(C)C)C(O)C1OC(C)=O` (stereo partly specified): the GI50 is 16.1 µM and the TGI was found to be 30.9 µM. In the case of `O=[N+]([O-])c1ccc(CN(CCCl)OCCCl)cc1`, the TGI was over 100 µM. `COc1cc(Nc2ncccc2C(=O)NCc2cn(Cc3cccc(Oc4ccccc4)c3)nn2)cc(OC)c1`: the GI50 is 6.15 µM and the TGI is over 100 µM. On the same counts, the results for `Cc1ccc(SC2c3ccc(C)cc3Oc3nc(N)c(C#N)c(N)c32)cc1` (stereo unspecified) are 2.35 µM and 6.65 µM. The molecule `CCCNC(=O)NNC(=O)c1c[nH]c2nc(C)ccc2c1=O` gave a TGI of over 100 µM. In the case of `COc1ccc(Sc2[nH]c(C(C)=O)c3ccccc23)cc1`, the GI50 is 13 µM and the TGI is 48.2 µM. On the same counts, the results for `COc1cc(OCc2cccc(-c3ccc(C(O)c4nccs4)cc3)c2C)cc(OC)c1C=O` (stereo unspecified) are 3.73 µM and 14.6 µM.

`O=C(Nc1ccc(Br)cc1F)c1cc(F)ccc1O`: the GI50 is 0.413 µM and the TGI is over 28.9 µM. Consider `CN(C)CCNC(=O)c1cccc2ccc(-c3ccc(O)cc3)nc12`, for which the GI50 is 1.62 µM; the TGI is 10.3 µM and 11.3 µM. `O=[N+]([O-])c1ccc2[nH]c(=S)[nH]c(=S)c2c1` registered a TGI of over 100 µM. On to `Cc1cc(Cl)cc(OCCn2cc(F)cn2)c1-c1nc(N)nc2c1CN(C(=O)NCC(C)(F)F)C2`, for which the GI50 was 37.5 µM and the TGI was over 100 µM. `O=P(O)(O)CCP(=O)(O)O` gave a TGI of over 100 µM.

Take `CC1(C)[C@@H](Cn2ccc(=O)[nH]c2=O)CC[C@@]1(C)CO`: the TGI is over 100 µM. The same measure, in the same setting: the value for `O=c1/c(=C/c2ccccc2[N+](=O)[O-])sc2nnc(-c3ccco3)n12` was over 100 µM; that for `CCC(=O)CC(=O)CCC(=O)Nc1cc(C)ccc1C` was over 100 µM. Same read-out and setting: for `N#CC1C(=S)NC(c2ccccc2)=CC12CCCCC2` (stereo unspecified) the value was 63.3 µM; for `CCCC(=O)NC(NC1CCCCC1)(C(=O)OCC)C(F)(F)F` (stereo unspecified), over 100 µM; for `Nc1nc(Cl)cc(NCCCCCCCCNc2cc(Cl)nc(N)n2)n1`, over 100 µM.

Regarding `C(=NCCN1CCOCC1)=NC1CCCCC1`, the TGI is over 100 µM. For the molecule `COc1cccc(F)c1C(=O)c1cnc(NC2CCN(S(C)(=O)=O)CC2)nc1N`, the GI50 is 5.87 µM and the TGI was determined as 24.9 µM. With `C[n+]1c2ccc(Cl)cc2nc2cc(-c3ccccc3)ccc21`, the TGI was 12 µM.

As to `NC(=O)/C=C/C(=O)c1c(Cl)cccc1Cl`, the GI50 was 1.64 µM and the TGI worked out at 3.32 µM.

Regarding `Cc1c(C)c2c(c(N)c1C#N)C(=O)N(NC(=O)c1ccccc1)C2=O`, the TGI was over 100 µM.

Turning to `CCN(CC)CCCN1CCc2c([nH]c3ccccc23)C1c1cccnc1` (stereo unspecified), the TGI was over 100 µM. On the same count and under the same terms, the value for `Cc1ccnc2[nH]c(-c3ccc4ccccc4c3)cc(=O)c12` was 4.82 µM. On the same count and under the same terms, for `COc1cc2c(cc1OC)C(CC1=C(c3ccccc3)CN3CCc4cc(OC)c(OC)cc4C3C1)NCC2` (stereo unspecified) the value was 29.1 µM; for `CCOC(=O)Nc1[nH]cc(-c2ccccc2)c1C#N`, over 100 µM. On the same count and under the same terms, the value for `COC(=O)c1ccc(/C=C/c2cc(O)ccc2O)cc1` was 87.6 µM. As for `COc1ccc(/C=C\[N+](=O)[O-])cc1OC`, the GI50 is 3.24 µM and the TGI is 17.4 µM.

With `O=[N+]([O-])C[C@@]12O[C@]3(O)C4C5CC(C6C5C3C61)C42` (stereo partly specified), the TGI is over 100 µM.

As to `Cc1ccc(C2SCC(=O)N2c2ccc(-n3c(-c4ccccc4)nc4ccccc4c3=O)cc2)cc1` (stereo unspecified), the TGI is over 100 µM. Same read-out and setting: for `C=C(Cl)C(=CCl)CCC(Br)C(C)(C)Cl` (mixture of isomers) the value was over 10 µM. Turning to `CCOC(=O)C1=CN(C)C=C(C(=O)OCC)C1c1cc(Br)c(OCC)c(OC)c1`, the GI50 is over 100 µM and the TGI was over 100 µM. In turn, `CCOC1(OCC)C2C=CC1C(COS(=O)(=O)c1ccc(C)cc1)C2COS(=O)(=O)c1ccc(C)cc1` (stereo unspecified) yielded a TGI of over 100 µM. On the same count and under the same terms, the value for `CC(C)(C)OC(=O)NC1CCCCC1NC(=O)C(=O)NC1CCCCC1NC(=O)OC(C)(C)C` (stereo unspecified) was over 100 µM; that for `Cc1ccc(S(=O)(=O)Nc2ccccc2C=O)cc1` was 53 µM; that for `CCCC(=O)OCC1OC(n2ccc(N)nc2=O)C(OC(=O)CCC)C1OC(=O)CCC` (stereo unspecified) was over 100 µM.

Take `CC1(C)N=C(N)N=C(N)N1c1ccc(CCCCc2ccc(Cl)cc2S(=O)(=O)F)c(Cl)c1`: the GI50 is 0.733 µM and the TGI was found to be 18.6 µM. `O=C(N/N=C(\c1ccccc1)c1ccccn1)NC1CCCCC1` came in with a TGI of over 100 µM. Still for that read-out and setting: for `CCOC(=O)CCC(NC(=O)Cc1ccc(Nc2nc3cc(F)c(F)cc3nc2C(=O)OCC)cc1)C(=O)OCC` (stereo unspecified) the value was over 100 µM. For the molecule `c1ccc(-c2nnc(-c3ccccn3)s2)nc1`, the GI50 was over 100 µM and the TGI was over 100 µM. Molecule `CCO/C(O)=C(/C(=N)N1CCOCC1)C(=O)Nc1ccc(F)cc1` had a TGI of over 100 µM. In turn, `CCCCCCCCCCCCCC(=O)OCC(C[As](=O)(O)O)OC(=O)CCCCCCCCCCCCC` (stereo unspecified) returned a TGI of over 100 µM. Regarding `C=CCc1cccc2cc(C(=O)NCc3ccccc3)c(=N)oc12`, the TGI amounted to 82.7 µM.

`COc1cccc(CCNC(=O)Cc2ccccc2CCO)c1` showed a TGI of over 100 µM.

Consider `O=CCC1CCCCC1`, for which the TGI was over 100 µM. Same read-out and setting: the value for `CCOC(=O)c1ccc(NC(=O)Oc2ccc3c(C)cc(=O)oc3c2)cc1` was over 100 µM. On the same count and under the same terms, the value for `Nc1ccc2c(c1)C(=O)N1CCC[C@H]1C(=O)N2` was over 100 µM; that for `CC(C)N(C(=O)C12C3C4C1C1C4(C#N)C3C12C#N)C(C)C` (stereo unspecified) was over 100 µM; that for `Fc1ccc2c(c1)nc1n2C(c2c(Cl)cccc2Cl)SC1` (stereo unspecified) was 34.5 µM. On the same count and under the same terms, for `O=C(/C=C/c1ccccc1)Oc1cccc(O)c1` the value was over 100 µM. As to `N#Cc1c(N)nc(N2CCOCC2)c(C#N)c1-c1ccncc1`, the GI50 is 25.6 µM and the TGI is over 100 µM. As to `O=C(/C=C/c1ccccc1)CCC1C(=O)c2ccccc2C1=O`, the TGI is over 100 µM. With `N#Cc1c(NC(=O)NCc2ccccc2)sc2c1CCCCC2`, the GI50 is 0.435 µM and the TGI is over 100 µM. In the same order, the values of `CCCCC#CC1=C(Br)C(=O)OC1` are 7.01 µM and 18.5 µM. With `COC(=O)C1=C(C(=O)OC)N(c2ccc(OC)cc2[N+](=O)[O-])C(c2ccc(C)cc2)=CC1c1ccc(OC)cc1OC` (stereo unspecified), the TGI is over 80.4 µM. On the same count and under the same terms, the value for `O=c1[nH]nnc2c1sc1ncccc12` was over 100 µM. The same measure, in the same setting: the value for `COC(=O)C(CC(C)C)NC(=O)C(C)NC(=O)C(Cc1ccc(OCc2ccccc2)cc1)NC(=O)C(COCc1ccccc1)NC(=O)OC(C)(C)C` (stereo unspecified) (Boc-S(Bn)Y(Bn)AL-OMe; configuration not given here) was over 100 µM.
